According to the supplement of paper PMC4604168 (melanoma cell lines):
The list shows a part of the results. Repeats are few or missing, and single values can be far off.

Columns and labels:
Experiment in all cases: cell count relative to DMSO control; melanoma cells; higher = more viable cells
Conditions in all cases: library dose: low library concentration; 72 h
[1] = tested on: MZ2-MEL
[2] = tested on: MeWo
[3] = tested on: RPMI7951
[4] = tested on: RVH-421
[5] = tested on: SkMel28
[6] = tested on: SkMel2
[7] = tested on: SkMel30
[8] = tested on: UACC62
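Further: cell number obtained by counting DAPI-stained nuclei in high-throughput microscope images with image analysis software, screen run in 1,536-well plates.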

Compound	cell count [1] [%]	cell count [2] [%]	cell count [3] [%]	cell count [4] [%]	cell count [5] [%]	cell count [6] [%]	cell count [7] [%]	cell count [8] [%]
O=C(/C=C/c1cccnc1)NCCCCC1CCN(C(=O)c2ccccc2)CC1 + C[As](C)SC[C@H](NC(=O)CC[C@H](N)C(=O)O)C(=O)NCC(=O)O [Darinaparsin] (first compound 0.01 µM, partner dose 0.4 µM)	32.9	96.6	95.3	51.6	95	29.3	93.3	118
CC[C@]1(O)C[C@H]2CN(CCc3c([nH]c4ccccc34)[C@@](C(=O)OC)(c3cc4c(cc3OC)N(C=O)[C@H]3[C@@](O)(C(=O)OC)[C@H](OC(C)=O)[C@]5(CC)C=CCN6CC[C@]43[C@@H]65)C2)C1 [vincristine] + N.N.[Cl][Pt][Cl] [cisplatin] (first compound 0.0001 µM, partner dose 1.6 µM)	100	111	113	94	124	102	102	99.6
N#CC[C@H](C1CCCC1)n1cc(-c2ncnc3[nH]ccc23)cn1 [ruxolitinib] + C[As](C)SC[C@H](NC(=O)CC[C@H](N)C(=O)O)C(=O)NCC(=O)O [Darinaparsin] (first compound 1 µM, partner dose 0.4 µM)	92.4	95.1	106	87	107	91.4	92.9	107
Cc1cc(Nc2cc(N3CCN(C)CC3)nc(/C=C/c3ccccc3)n2)n[nH]1 + C[As](C)SC[C@H](NC(=O)CC[C@H](N)C(=O)O)C(=O)NCC(=O)O [Darinaparsin] (first compound 0.04 µM, partner dose 0.4 µM)	94.3	84	83	95.7	80.2	86	71.7	80.4
COc1cc([C@@H]2c3cc4c(cc3[C@@H](O[C@@H]3O[C@@H]5CO[C@@H](C)O[C@H]5[C@H](O)[C@H]3O)[C@H]3COC(=O)[C@H]23)OCO4)cc(OC)c1O [etoposide] + N.N.[Cl][Pt][Cl] [cisplatin] (first compound 0.02 µM, partner dose 1.6 µM)	83.1	82.9	74.1	82.9	83.3	88.2	90.8	86.5
CS(=O)(=O)CCNCc1ccc(-c2ccc3ncnc(Nc4ccc(OCc5cccc(F)c5)c(Cl)c4)c3c2)o1 [lapatinib] + C[As](C)SC[C@H](NC(=O)CC[C@H](N)C(=O)O)C(=O)NCC(=O)O [Darinaparsin] (first compound 0.8 µM, partner dose 0.4 µM)	95.2	83.4	84	81.5	76.5	93.7	81.6	89.6
CCCS(=O)(=O)Nc1ccc(F)c(C(=O)c2c[nH]c3ncc(Cl)cc23)c1F + C[As](C)SC[C@H](NC(=O)CC[C@H](N)C(=O)O)C(=O)NCC(=O)O [Darinaparsin] (first compound 0.08 µM, partner dose 0.4 µM)	89.4	96.3	128	89.3	74.2	91.4	86.3	68
CCN(CC)CCNC(=O)c1c(C)[nH]c(/C=C2\C(=O)Nc3ccc(F)cc32)c1C [sunitinib] + N.N.[Cl][Pt][Cl] [cisplatin] (first compound 0.4 µM, partner dose 1.6 µM)	109	89.1	118	109	99.8	107	84.3	90.3
C[C@@H](N)c1ccc(C(=O)Nc2ccnc3[nH]ccc23)cc1 + Cn1cc(C2=C(c3cn(C4CCN(Cc5ccccn5)CC4)c4ccccc34)C(=O)NC2=O)c2ccccc21 [Enzastaurin] (first compound 0.4 µM, partner dose 0.8 µM)	65.5	111	83	59.3	84.5	99	109	93.4
Cc1ccc(Nc2nccc(N(C)c3ccc4c(C)n(C)nc4c3)n2)cc1S(N)(=O)=O [Pazopanib] + N.N.[Cl][Pt][Cl] [cisplatin] (first compound 0.4 µM, partner dose 1.6 µM)	87.5	96.1	97.6	91.2	103	106	80.8	117
Cc1ccc(Nc2nccc(N(C)c3ccc4c(C)n(C)nc4c3)n2)cc1S(N)(=O)=O [Pazopanib] + C[As](C)SC[C@H](NC(=O)CC[C@H](N)C(=O)O)C(=O)NCC(=O)O [Darinaparsin] (first compound 0.4 µM, partner dose 0.4 µM)	70.7	96.4	96.8	111	88.9	94.9	97	90.3
CC[C@]1(O)C[C@H]2CN(CCc3c([nH]c4ccccc34)[C@@](C(=O)OC)(c3cc4c(cc3OC)N(C=O)[C@H]3[C@@](O)(C(=O)OC)[C@H](OC(C)=O)[C@]5(CC)C=CCN6CC[C@]43[C@@H]65)C2)C1 [vincristine] + Cn1cc(C2=C(c3cn(C4CCN(Cc5ccccn5)CC4)c4ccccc34)C(=O)NC2=O)c2ccccc21 [Enzastaurin] (first compound 0.0001 µM, partner dose 0.8 µM)	100	111	65.4	89.2	98.1	94.8	109	73.6
Cc1ccc(Nc2nccc(N(C)c3ccc4c(C)n(C)nc4c3)n2)cc1S(N)(=O)=O [Pazopanib] + Cn1cc(C2=C(c3cn(C4CCN(Cc5ccccn5)CC4)c4ccccc34)C(=O)NC2=O)c2ccccc21 [Enzastaurin] (first compound 0.4 µM, partner dose 0.8 µM)	74.6	120	82	88.7	92.1	97	91.4	94.3
C[C@@H](N)c1ccc(C(=O)Nc2ccnc3[nH]ccc23)cc1 + C[As](C)SC[C@H](NC(=O)CC[C@H](N)C(=O)O)C(=O)NCC(=O)O [Darinaparsin] (first compound 0.4 µM, partner dose 0.4 µM)	82.7	69	82.1	78.3	70.7	101	110	60.1
Cn1cnc2c(F)c(Nc3ccc(Br)cc3Cl)c(C(=O)NOCCO)cc21 [selumetinib] + C[As](C)SC[C@H](NC(=O)CC[C@H](N)C(=O)O)C(=O)NCC(=O)O [Darinaparsin] (first compound 0.015 µM, partner dose 0.4 µM)	97.8	108	134	91.8	104	89.1	63.9	90.4
Cn1c(=O)n(-c2ccc(C(C)(C)C#N)cc2)c2c3cc(-c4cnc5ccccc5c4)ccc3ncc21 + C[As](C)SC[C@H](NC(=O)CC[C@H](N)C(=O)O)C(=O)NCC(=O)O [Darinaparsin] (first compound 0.004 µM, partner dose 0.4 µM)	99.9	79.6	107	105	65.7	87.9	82.4	94.7
CC1(C)CCC(c2ccc(Cl)cc2)=C(CN2CCN(c3ccc(C(=O)NS(=O)(=O)c4ccc(N[C@H](CCN5CCOCC5)CSc5ccccc5)c(S(=O)(=O)C(F)(F)F)c4)cc3)CC2)C1 + N.N.[Cl][Pt][Cl] [cisplatin] (first compound 0.4 µM, partner dose 1.6 µM)	86.6	75.1	63.4	66.4	80.2	85.4	65	90.8
C[C@]1(O)C[C@@H](c2nc(-c3ccc4ccc(-c5ccccc5)nc4c3)c3c(N)nccn32)C1 + C[As](C)SC[C@H](NC(=O)CC[C@H](N)C(=O)O)C(=O)NCC(=O)O [Darinaparsin] (first compound 0.4 µM, partner dose 0.4 µM)	91.3	90.1	81.1	89.9	96.1	82.1	82.9	84.4
CCN(CC)CCNC(=O)c1c(C)[nH]c(/C=C2\C(=O)Nc3ccc(F)cc32)c1C [sunitinib] + C[As](C)SC[C@H](NC(=O)CC[C@H](N)C(=O)O)C(=O)NCC(=O)O [Darinaparsin] (first compound 0.4 µM, partner dose 0.4 µM)	120	71.7	95.5	106	96	120	89.5	96.7
OCc1c[nH]c2ccccc12 [Indole-3-carbinol] + C[As](C)SC[C@H](NC(=O)CC[C@H](N)C(=O)O)C(=O)NCC(=O)O [Darinaparsin] (first compound 0.8 µM, partner dose 0.4 µM)	102	89.2	84.5	80.8	108	94.6	87.2	80.7
COc1ccc(C2=N[C@@H](c3ccc(Cl)cc3)[C@@H](c3ccc(Cl)cc3)N2C(=O)N2CCNC(=O)C2)c(OC(C)C)c1 [Nutlin-3] + N.N.[Cl][Pt][Cl] [cisplatin] (first compound 0.1 µM, partner dose 1.6 µM)	100	101	94	65.8	99.8	102	120	92.2
CS(=O)(=O)c1ccc(C(=O)Nc2ccc(Cl)c(-c3ccccn3)c2)c(Cl)c1 [vismodegib] + C[As](C)SC[C@H](NC(=O)CC[C@H](N)C(=O)O)C(=O)NCC(=O)O [Darinaparsin] (first compound 1 µM, partner dose 0.4 µM)	114	106	118	99.9	102	106	101	137
CC(=O)c1c(C)c2cnc(Nc3ccc(N4CCNCC4)cn3)nc2n(C2CCCC2)c1=O [palbociclib] + C[As](C)SC[C@H](NC(=O)CC[C@H](N)C(=O)O)C(=O)NCC(=O)O [Darinaparsin] (first compound 0.04 µM, partner dose 0.4 µM)	74.6	67.6	71.9	80.3	80.5	72.6	73.5	62.1
